Assay results: the RNAGym collection of RNA variant scans (doi:10.1073/pnas.2313332121)
Variants at the background level are over-represented here.

B1: TPR 5TU (parent)
chain: GGAUCUUCUCGAUCUAACAAAAAAGACAAAUCUGCCACAAAGCUUGAGAGCAUCUUCGGAUGCAGAGGCGGCAGCCUUCGGUGGCGCGAUAGCGCCAACGUUCUCAACUAUGACACGCAAAACGCGUGCUCCGUUGAAUGGAGUUUAUCAUG

Variants of: B1
Test: polymerase ribozyme fitness, log enrichment relative to wild type (log ratio); higher = more active; in vitro selection for triplet polymerase activity
How it was run: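 To select mutant libraries of each subunit of a heterodimeric triplet polymerase ribozyme, built by PCR and transcribed, each was annealed with a biotinylated primer, partner subunit and triplets, then incubated frozen at −7 °C. Extended constructs were gel-excised, captured on streptavidin beads and amplified by RT-PCR, in one round carried out in triplicate. Illumina sequencing of input and output libraries kept genotypes with ≥10 input reads and ≥1 read per output. Fitness is the base-2 logarithm of genotype enrichment relative to wild-type enrichment, from inverse-variance-weighted replicate averages.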

**Q.** With GGAUCUUCUCGAUCUAACAAUAAAGACCAAUCUGCCACAAAGCUUGAGAGCAUCUUCGGAUGCAGAGGCGGCAGCCUUCGGUGGGGCGAUAGCGCCAACGUUCUCAACUAUGACAAGCAAAACGCGUGCUCCUUUGAAUGGUGUUUAUCAUG [A21U A28C C85G C116A G133U A142U] as the variant, how does the “polymerase ribozyme fitness (log ratio)” value read?
**A.** ≤ -4.2

**Q.** With GGAUCUUCUCGAUCUAACAAUAAAGACCAAGCUGCCACAAAGCUUGGGAGCAUCUUCGGAUGCAGAGGCGGCAGCCUUCGGUGGUGCGAUAGCGCCAACGUUCUCAACUAUGACAGGCAAAACGCGUGAUCCAUUGAAUGGAGUUUAUCAUG [A21U A28C U31G A47G C85U C116G C129A G133A] as the variant, how does the “polymerase ribozyme fitness (log ratio)” value read?
**A.** ≤ -4.2

**Q.** Which “polymerase ribozyme fitness (log ratio)” value does the source give for GGAUCUUCUCGAUCUAACAAUAAAGACACAUCUGCCACAAAGCUUGAGAGCAUCUUCGGAUGCAGAGGCGGCAGCCUUCGGUGGCGCGAUAACGCCAAUGUUCUCAACUAUGACACUCAAAACGCGUGCGCCGUUGAAUGGAGUUUAUCAUG [A21U A29C G92A C99U G117U U130G] here?
**A.** -3.76

**Q.** For GGAUCUUCUCGAUCUAACAAUAAAGACAUAUCUGGCUCAAAGCUUGAGAGCAUCUUCGGAUGCAGAGGCGGCAGACUUCGGUGGCGCGAUAGCGCCAACGUUCUCAACUAUGACACGCAAAAUGCGUGCUCCGUUGAAUGGAGUUUAUCAUG [A21U A29U C35G A37U C75A C123U], which “polymerase ribozyme fitness (log ratio)” value is on record?
**A.** ≤ -4.2

**Q.** With GGAUCUUCUCGAUCUAACAAUAAAGACAUAUCUGCCACAAAGCUUGAGAGCAUCUUAGGAUGCAGAGGCGGCAGCCUUCGGUGGCGCGAUUGCGGCAACGUUCUCCACUAUGAUACGCAAAACGCGUGCUCCGUUGAAUGGCGUCUAUGAUG [A21U A29U C57A A91U C95G A106C C114U A142C U145C C149G] as the variant, how does the “polymerase ribozyme fitness (log ratio)” value read?
**A.** ≤ -4.2

**Q.** With GGAUCUUCUCGAUCUAACAAUAAAGACAUAUCUGCCACAAAGCUUGAGAACAUCUACGGAUGCAGAGGCGGCAGCCUUCGGUGGCGCGAUACCGCCAACGUUCUCAACUAUGACACGCAAAACGCGUGCUCCGUUGAAUGCAGUUUAUCAUG [A21U A29U G50A U56A G92C G141C] as the variant, how does the “polymerase ribozyme fitness (log ratio)” value read?
**A.** ≤ -4.2

**Q.** With GGAUCUUCUCGAUCUAACAAUAAAGACAUAUCUGCCACAAAGCUUGAGAGCAUCUUCGGAUGCAGAUGGGGCAGCCUUCGGUGGCGCGAUAGCGCCAACGUUCUCAACUAUGACACGCAAAACGCGUGCUCCUUUGAAUGGAGUUUAUCAUG [A21U A29U G67U C69G G133U] as the variant, how does the “polymerase ribozyme fitness (log ratio)” value read?
**A.** ≤ -4.2

**Q.** For GGAUCUUCUCGAUCUAACAAUAAAGACAUAUCUGCCACAAAGCUUGAGAGCAUCUUCGGAUGCAGAGGCGGCAGCCUUCGGUGGCGCCUUAGCGUCAACGUUCGUAACUAUGACACGCAAAACGUGUGCUCCGUUGAAUGGCGUUUAUCAUG [A21U A29U G88C A89U C95U U104G C105U C125U A142C], which “polymerase ribozyme fitness (log ratio)” value is on record?
**A.** ≤ -4.2

**Q.** For GGAUCUUCUCGAUCUAACAAUAAAGACAAGUCUGCCACAAAGCUUGAGAGCAUCUUCGGAUGCAGAGGCGGCAGCCUUCGGUGGCGCGAUAGCGCCAACGUUCUCAACUAUGACACGCAAAACGCGUGCUCCGUUGAAUGGAGUUUAUCAUG [A21U A30G], which “polymerase ribozyme fitness (log ratio)” value is on record?
**A.** -3.62

**Q.** For GGAUCUUCUCGAUCUAACAAUAAAGACAAGUCUGCCACAAAGCUUGGGAGCAACUUCGGAUGCAGAGGCGGCAGCCUUCGGUGGCGCGAUAGCUCCAACGUUCUCAACUAUGACACGCAAAACUCGUGCUCCGUUGAAUGGAGCUUAUCAUG [A21U A30G A47G U53A G94U G124U U144C], which “polymerase ribozyme fitness (log ratio)” value is on record?
**A.** ≤ -4.2

**Q.** For GGAUCUUCUCGAUCUAACAAUAAAGACAAGUCUGCCACAAAGCUUGAGAGCAACUUCGGAUGCUGAGGCGGCAGCCUUCGGUGGCGUGAUAGCGCCAACAUACUCAACUAUGACACGCAAAACGCGUGCUCCGUUGAAUGGAGUUUAUCAUG [A21U A30G U53A A64U C87U G100A U102A], which “polymerase ribozyme fitness (log ratio)” value is on record?
**A.** ≤ -4.2

**Q.** For GGAUCUUCUCGAUCUAACAAUAAAGACAAGUCUGCCACAAAGCUUGAGAGCAUCUUCGGAAGCAGAGGCGGCAGCCUUCGGUGGCACGAUAGAGCCAACGUUCUCAACUAUGACACGCAAAACGCGUUCUCCGUUGAAUGAAGUUUACCAUG [A21U A30G U61A G86A C93A G128U G141A U148C], which “polymerase ribozyme fitness (log ratio)” value is on record?
**A.** ≤ -4.2

**Q.** Which “polymerase ribozyme fitness (log ratio)” value does the source give for GGAUCUUCUCGAUCUAACAAUAAAGACAAUUCUGCCUCAAAGCUUGAGAGCAUCUUCGGAUGCAGAGGCGGCAGCCUUCGGUGGCGCGAUAGCGCCAACGUUUUCAACUAUGACACGCAAAACGCGUGCUCCGUUGAAUGGAGUUUAUCAUG [A21U A30U A37U C103U] here?
**A.** ≤ -4.2

**Q.** With GGAUCUUCUCGAUCUAACAAUAAAGACAAUUCUGCCACAAAGCUUGAGAGCAUCUUCGGAUACAGAGGCGGCAGCCUUCGGUAGCGCGAUAGCGCCAACGUUCUCAGCUAUGACACGCAUAACGCGUGCUCCGCUGAAUUGAGUUUAUCAUG [A21U A30U G62A G83A A107G A120U U134C G140U] as the variant, how does the “polymerase ribozyme fitness (log ratio)” value read?
**A.** ≤ -4.2

**Q.** Which “polymerase ribozyme fitness (log ratio)” value does the source give for GGAUCUUCUCGAUCUAACAAUAAAGACAAAUCUGCCCCAACGCUUGAGAGCAUCUUCGGGUGCAGAGGCGGCAGCCUUCGGUGGCGCGAUAGCGCCAACGUUCUCAGCUAUGACACGCAAAACGCGUGCUCCGUUGAAUGGAGUUUAUCAUG [A21U A37C A41C A60G A107G] here?
**A.** ≤ -4.2

**Q.** For GGAUCUUCUCGAUCUAACAAUAAAGACAAAUCUGCCCCAACGCUUGAGAGCAUCUUCGGAUGCAGAGGCGGCAGCCUUCGGUGUCGCGAUAACGCCAACGUUCACAACUAUGACACGCAAAACGCGUGCUCCGUUGAAUGGUGUUUAUCAUG [A21U A37C A41C G84U G92A U104A A142U], which “polymerase ribozyme fitness (log ratio)” value is on record?
**A.** ≤ -4.2

**Q.** With GGAUCUUCUCGAUCUAACAAUAAAGACAAAUCUGCCACUAAGCUUGAGAGCCUCUUCGGAUGCAGAGGCAGCAGCCUUCCGUUGCGCGAUAGCGCCAAUGUUCUCAACUAUGACACGUAAAACGCGUGCUCCUGUGUAUGGAGUUUAUCAGG [A21U A39U A52C G70A G80C G83U C99U C118U G133U U134G A137U U151G] as the variant, how does the “polymerase ribozyme fitness (log ratio)” value read?
**A.** ≤ -4.2

**Q.** With GGAUCUUCUCGAUCUAACAAUAAAGACAAAUCUGCCACUAAGGUUGAGACCAUCUUCGGAUGCAGAGGCGGCAGCCUUCGGUGGCGCGAUAACGCCAACGUUCUCAACUAUGACACGCAAAACGCGUGCUCCGUUGAAUGUAGUUUAUCAUG [A21U A39U C43G G50C G92A G141U] as the variant, how does the “polymerase ribozyme fitness (log ratio)” value read?
**A.** ≤ -4.2

**Q.** For GGAUCUUCUCGAUCUAACAAUAAAGACAAAUCUGCCACAAAGCUUGCGAGCCUCUUCGGGUGCAGAGGCGGCAGCCUUCGGUGGGGAGAUAGCGCCAACGUUCUCAACUAUGACACGCAACACGCGUGCUCCGUUGAAUGGAGUUUAUCAUG [A21U A47C A52C A60G C85G C87A A121C], which “polymerase ribozyme fitness (log ratio)” value is on record?
**A.** ≤ -4.2
